Drawing on paper PMC13083723 (Patterns, 2026), this text covers result_ITMP for 87 molecules.

Screen size: about 5,400 compounds; about 190 (3.5%) showed an effect of 50% or more. Some of the results follow.

The test relates to Vero-E6. Nature of the test: primary screen, phospholipidosis by LipidTOX staining; higher = more effect of the substance. Conditions: 10 µM. The procedure, abridged: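 Single-concentration screen at 10 μM, with DMSO 0.1 v/v % and amiodarone 10 μM as controls. Read-out is LipidTOX Red phospholipid staining, which tolerates aldehyde fixation, in Vero-E6 cells.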
Consider `Cc1cc(NC(=O)NCCN2CCC(O)(Cc3ccccc3)CC2)c2ccccc2n1`, for which the result_ITMP is recorded as -2.11%.

With `CCN(CC)C(=O)Nc1ccc(OCC(O)CNC(C)(C)C)c(C(C)=O)c1` (stereo not drawn), the result_ITMP was -0.86%.

With `COc1cc(OC)c(NC(=O)Nc2cc(C)on2)cc1Cl`, the result_ITMP is -2.8%.

Regarding `O=C(O)C1=CCCN(CCOC(c2ccc(C(F)(F)F)cc2)c2ccc(C(F)(F)F)cc2)C1`, the result_ITMP is listed as -1.72%.

On to `O=C(CCBr)N1CCN(C(=O)CCBr)CC1`, for which the result_ITMP was 4.8%.

In the case of `CCCCC1C(=O)N(c2ccccc2)N(c2ccc(O)cc2)C1=O` (stereo not drawn), the result_ITMP was -3.35%.

`CC1(C)Oc2ccc(C#N)cc2[C@H](N(Cc2ncc[nH]2)c2ccc(Cl)cc2)[C@H]1O`: the result_ITMP came to 0.47%.

Turning to `NC[C@@](O)(c1ccc(Cl)cc1)c1ccc(-c2cn[nH]c2)cc1`, the result_ITMP was 63.1%.

For `O=c1c(O)c(-c2ccc(O)cc2)oc2cc(O)cc(O)c12`, the result_ITMP is listed as -2.54%.

Take `C#C[C@]1(O)CC[C@H]2[C@@H]3CCC4=CC(=O)CCC4=C3C=C[C@@]21CC`: the result_ITMP is on record as -5.99%.

For `COc1cc2nc(N3CCN(C(=O)C4COc5ccccc5O4)CC3)nc(N)c2cc1OC` (stereo not drawn), the result_ITMP was 21.3%.

As for `CN(C)CCCO[C@@H]1[C@H]2OC(C)(C)O[C@H]2O[C@@H]1[C@H](O)CO`, the result_ITMP is given as -8.5%.

With `CC(C)(CCCCCCCCCCC(C)(C)CC(=O)O)CC(=O)O`, the result_ITMP is -8.61%.

Take `Cc1nccc2[nH]c(=O)ccc12`: the result_ITMP was -0.1%.

As to `O=C(Nc1cnc(Cl)nc1)c1ccc(F)c(F)c1`, the result_ITMP is -0.35%.

As for `c1ccc(Cn2c(-c3ccc(OC[C@H](C4CCNCC4)n4c(-c5ccccc5)nc5ccccc54)cc3)nc3ccccc32)cc1`, the result_ITMP is reported as 13.3%.

For the molecule `CCN(CC)C(=O)C1(c2ccccc2)CC1CN` (stereo not drawn), the result_ITMP is given as -0.03%.

As to `Cc1cc(C(C)(C)C)cc(C)c1CC1=NCCN1`, the result_ITMP is reported as 15%.

Regarding `CCN(CCCCOC(=O)c1ccc(OC)c(OC)c1)C(C)Cc1ccc(OC)cc1` (stereo not drawn), the result_ITMP amounted to 10.5%.

Consider `COc1cc(NC(=O)c2ccccn2)ccc1Cl`, for which the result_ITMP is listed as 0.69%.

Consider `O=P(O)(O)C(O)(Cn1ccnc1)P(=O)(O)O`, for which the result_ITMP was -1.98%.

Turning to `CCC(C)[C@H]1O[C@]2(C=C[C@@H]1C)C[C@@H]1C[C@@H](C/C=C(\C)[C@@H](OC3C[C@H](OC)C(O[C@H]4C[C@H](OC)[C@@H](O)[C@H](C)O4)[C@H](C)O3)[C@@H](C)/C=C/C=C3\CO[C@@H]4[C@H](O)C(C)=C[C@@H](C(=O)O1)[C@]34O)O2` (stereo partly drawn), the result_ITMP is -3.77%.

As to `CCOC(=O)c1ccc(N(C)c2csc(-c3ccccc3)n2)cc1`, the result_ITMP is recorded as -1.56%.

Take `COC(=O)[C@H](CC(C)C)NC(=O)c1ccc(NC[C@@H](N)CS)cc1-c1cccc2ccccc12`: the result_ITMP is recorded as 2.98%.

On to `C=C1/C(=C\C=C2/CCC[C@]3(C)[C@@H]([C@H](C)CCCC(O)(C(F)(F)F)C(F)(F)F)CC[C@@H]23)C[C@@H](O)C[C@@H]1O`, for which the result_ITMP turned out to be 0.82%.

Take `C=C[C@@H]1C2=CCOC(=O)C2=CO[C@H]1O[C@@H]1O[C@H](CO)[C@@H](O)[C@H](O)[C@H]1O`: the result_ITMP was -5.79%.

In the case of `CCN(CC)CCOCCOC(=O)C1(c2ccccc2)CCCC1`, the result_ITMP was determined as 6.63%.

In the case of `COc1ccc(Oc2c(Cl)cnn(C3c4ccccc4-c4ccccc43)c2=O)cc1`, the result_ITMP came out at 8.58%.

As to `CC(C)C[C@@H](NC(=O)OCC1c2ccccc2-c2ccccc21)C(=O)O`, the result_ITMP is recorded as -9.45%.

For `C=CCOc1ccccc1OCC(O)CNC(C)C` (stereo not drawn), the result_ITMP was found to be 7.84%.

Turning to `O=C(/C=C/c1cccc(S(=O)(=O)Nc2ccccc2)c1)NO`, the result_ITMP was -7.37%.

With `Cc1nc(=O)c2c([nH]1)CCSC2`, the result_ITMP is listed as -2.05%.

As to `Cc1c(N)c(=O)n(-c2ccccc2)n1C`, the result_ITMP is listed as -5.95%.

For `O=C(O)c1ccc[n+]([O-])c1`, the result_ITMP was -11.7%.

As to `Nc1nc2c(cnn2CCc2ccccc2)c2nc(-c3ccco3)nn12`, the result_ITMP was -1.94%.

Turning to `CC(=O)SCCC(=O)N1C(C)CCCC1C(=O)O` (stereo not drawn), the result_ITMP is -5.88%.

Take `CCC(C)CC(C)CCCCCCCCC(=O)N[C@H]1C[C@@H](O)[C@@H](NCCN)NC(=O)[C@@H]2[C@@H](O)CCN2C(=O)[C@H]([C@H](O)CCN)NC(=O)[C@H]([C@@H](O)[C@H](O)c2ccc(O)cc2)NC(=O)[C@@H]2C[C@@H](O)CN2C(=O)[C@H]([C@@H](C)O)NC1=O` (stereo partly drawn): the result_ITMP stood at 6.26%.

For `CCCCOc1c(C(=O)c2c(F)cc(C)cc2F)cnc2[nH]ncc12`, the result_ITMP was found to be 7.58%.

Regarding `CC1=C(/C=C/C(C)=C/C=C/C(C)=C\C(=O)O)C(C)(C)CCC1` [R4A_0003961_001 / SPE_K76723084], the result_ITMP is recorded as -4.14%.

For the molecule `CCC1(c2ccccc2)C(=O)N(COC)C(=O)N(COC)C1=O`, the result_ITMP is -0.57%.

Consider `CNC(=O)c1ccc2c(c1)S(=O)(=O)c1ccccc1C2=O`, for which the result_ITMP is listed as -1.39%.

As to `O=C(CCc1ccncc1)NNC(=O)N1Cc2ccccc2Oc2ccc(Cl)cc21`, the result_ITMP is listed as -1.3%.

Turning to `CCOC(=O)Nc1nc2ccccc2[nH]1`, the result_ITMP worked out at 2.26%.

Turning to `NC(C(=O)O)c1nnn[nH]1` (racemic), the result_ITMP is given as -4.82%.

Consider `CN1CCN(c2ccc(/C=C(\C#N)c3ccccc3Br)cc2)CC1`, for which the result_ITMP came to 39.7%.

As to `CCOC(=O)/C=C(C)/C=C/C=C(C)/C=C/c1c(C)cc(OC)c(C)c1C`, the result_ITMP is listed as -0.31%.

As for `CC1(C)Cc2c(-c3ccccc3)c(-c3ccc(Cl)cc3)c(CC(=O)O)n2C1`, the result_ITMP is given as 1.05%.

Regarding `CN1CCN(c2ccc(-c3cccc(CN4CCOCC4)c3)cc2NC(=O)c2c[nH]c(=O)cc2C(F)(F)F)CC1`, the result_ITMP was -0.45%.

Regarding `CC(C)(C)c1cc(NC(=O)Nc2ccc(-c3cn4c(n3)sc3cc(OCCN5CCOCC5)ccc34)cc2)no1`, the result_ITMP worked out at 0.02%.

`NCCC(O)(P(=O)([O-])O)P(=O)([O-])O`: the result_ITMP is -8.19%.

For `CC(CNC1CCCCC1)OC(=O)c1ccccc1` (stereo not drawn), the result_ITMP is recorded as -7.2%.

For the molecule `O=C(O)c1cccc(-c2noc(-c3ccccc3F)n2)c1`, the result_ITMP was -2.4%.

In the case of `Nc1ccc(S(=O)(=O)Nc2nccs2)cc1`, the result_ITMP is recorded as -3.89%.

With `CC(C)(C)c1ccc(-c2nc3cccc(N4CCN(Cc5ccc6nccnc6c5)CC4)c3[nH]2)cc1`, the result_ITMP came to 5.05%.

In the case of `O=C1C(Cl)=C(N2CCOCC2)C(=O)N1c1ccc(Cl)c(Cl)c1`, the result_ITMP is listed as -4.29%.

On to `COc1ccc(C(=O)Nc2c(Cl)cncc2Cl)cc1OC1CCCC1`, for which the result_ITMP is given as -2.57%.

Regarding `Cc1ccc(NC(=O)CCCCCC(=O)Nc2ccccc2N)cc1`, the result_ITMP is -1.6%.

In the case of `Cc1ccc(-c2cc(C(F)(F)F)nn2-c2ccc(S(N)(=O)=O)cc2)cc1`, the result_ITMP is recorded as -4.02%.

On to `CCCOC(=O)c1ccc(O)cc1`, for which the result_ITMP is reported as -6.59%.

`Nc1nc(NC[C@H]2CC[C@H](CNS(=O)(=O)c3cccc4ccccc34)CC2)nc2ccccc12`: the result_ITMP was found to be 41.1%.

Turning to `NCC(CC(=O)O)c1ccc(Cl)cc1` (racemic), the result_ITMP is given as 2.22%.

`CCOC(=O)C1=C(C)NC(=S)NC1c1cccc(O)c1` (stereo not drawn): the result_ITMP was -1.92%.

Take `COC1[C@@H](O)[C@@H](O)C(O)[C@H](O)[C@H]1O` (stereo partly drawn): the result_ITMP was determined as 1.78%.

For `CC[C@H]1OC(=O)[C@H](C)[C@@H](O[C@H]2C[C@@](C)(OC)[C@@H](O)[C@H](C)O2)[C@H](C)[C@@H](O[C@@H]2O[C@H](C)C[C@H](N(C)C)[C@H]2O)[C@](C)(O)C[C@@H](C)CN(C)[C@H](C)[C@@H](O)[C@]1(C)O`, the result_ITMP is listed as 21.4%.

With `Nc1nc(OCC2CCCCC2)c2nc[nH]c2n1`, the result_ITMP is listed as -3.64%.

For `CC(C)NCC(O)c1ccc([N+](=O)[O-])cc1` (stereo not drawn), the result_ITMP is recorded as 6.25%.

Turning to `CN1CCc2nc(C(=O)N[C@@H]3C[C@@H](C(=O)N(C)C)CC[C@@H]3NC(=O)C(=O)Nc3ccc(Cl)cn3)sc2C1`, the result_ITMP is given as -7.24%.

Regarding `OCCn1cc(-c2ccc3c(c2)CC/C3=N\O)c(-c2ccncc2)n1`, the result_ITMP is on record as -1.63%.

With `CN[C@H]1CC[C@@H](c2ccc(Cl)c(Cl)c2)c2ccccc21`, the result_ITMP was 56.1%.

Regarding `COCCNC(=O)COc1ccc(OCCNC[C@H](O)COc2ccccc2)cc1`, the result_ITMP is given as -1.98%.

For the molecule `Cn1cc(-c2cnc3ccc4ccc(CS(=O)(=O)NCc5ccccn5)cc4c(=O)c3c2)cn1`, the result_ITMP is recorded as -1.67%.

For the molecule `NC[C@H](O)c1ccc(O)c(O)c1`, the result_ITMP is on record as -1.45%.

For the molecule `Cc1sc2c(c1C)C(c1ccc(Cl)cc1)=N[C@@H](CC(N)=O)c1nnc(C)n1-2`, the result_ITMP turned out to be 1.35%.

As to `CCc1cnc(N2CCC(c3nc(COc4ccc(-n5cnnn5)cc4)cs3)CC2)nc1`, the result_ITMP is listed as -7.99%.

In the case of `CC(C)(C)C(=O)OCOC(=O)C1N2C(=O)CC2S(=O)(=O)C1(C)C` (stereo not drawn), the result_ITMP is reported as 3.85%.

`CC[C@H](CO)Nc1nc(Nc2cccc(-c3ccccn3)c2)c2ncn(C(C)C)c2n1`: the result_ITMP is listed as 0.3%.

Consider `CCCCCCOc1ccccc1C(N)=O`, for which the result_ITMP is -5.88%.

For `O=C(O)C1=CC(O)C(O)[C@H](O)C1` (stereo partly drawn), the result_ITMP came out at 1.4%.

As for `O=C([O-])CN1CCN(CC(=O)[O-])CCN(C(CO)C(O)CO)CCN(CC(=O)[O-])CC1.[Gd+3]` (stereo not drawn), the result_ITMP was -1.16%.

With `CCc1cc2c(cc1CC)CC(NC[C@H](O)c1ccc(O)c3[nH]c(=O)ccc13)C2`, the result_ITMP is on record as 0.13%.

On to `c1cc(CN2CCCCC2)cc(OCCCNc2nc3ccccc3s2)c1`, for which the result_ITMP is recorded as 32.9%.

Consider `CCn1c2ccccc2c2cc(CNC)ccc21`, for which the result_ITMP is reported as 73.3%.

With `Cc1c(-c2ccc(O)cc2)n(Cc2ccc(OCCN3CCCCCC3)cc2)c2ccc(O)cc12`, the result_ITMP was found to be 57.2%.

As for `CCOC1O[C@H]([C@@H](COCc2ccccc2)OCc2ccccc2)[C@H](OCc2ccccc2)[C@H]1O` (stereo partly drawn), the result_ITMP was -9.88%.

On to `C=C[C@]1(C)C[C@@H](OC(=O)CSC(C)(C)CNC(=O)[C@H](N)C(C)C)[C@]2(C)[C@H](C)CC[C@]3(CCC(=O)[C@H]32)[C@@H](C)[C@@H]1O`, for which the result_ITMP was determined as 22%.

`CC1(C)S[C@@H]2[C@H](NC(=O)COc3ccccc3)C(=O)N2[C@H]1C(=O)[O-]`: the result_ITMP was -2.47%.

Consider `Cc1cc(Nc2cc(N3CCN(C)CC3)nc(Sc3ccc(NC(=O)C4CC4)cc3)n2)n[nH]1`, for which the result_ITMP is on record as 8.23%.
